The results in this text go back to PubChem BioAssay AID1346428 (National Center for Advancing Translational Sciences (NCATS), 2018).

Structures are written as SMILES. Values joined by “and” are separate entries in the source; they are usually repeats but may differ in a detail not shown here. Equal values may be shown once. About 1,200 (2.5%) of roughly 48,000 compounds were called active. Roughly 2% stayed inconclusive and do not appear here.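 Rule for the calls: active = activation of at least 60% and not above a set upper limit (about 1 call in 100 departs from these limits); inconclusive = activation of 40% to 60%, or above that upper limit; inactive = activation under 40%.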 The list shows a part of the results.

In the assay the target is Probable G-protein coupled receptor 32 (Homo sapiens) (UniProt O75388). As to the kind of experiment: qHTS for Agonists of Human Resolvin D1 Receptor DRV1. Note: 0% is about no effect. As to conditions: CHO-K1 GPR32 beta-arrestin PathHunter luminescence, 90 min; at 76.9 µM; hits give high values; zero percent set by DMSO-only wells. The procedure, abridged: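 Luminescent readout of beta-Gal complementation quantifies ligand-induced beta-arrestin association with GPR32 in CHO-K1 cells; 90 min compound incubation at 37 °C, detection 1 h at room temperature.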
Sequence of UniProt O75388 (O75388 whole entry, looked up): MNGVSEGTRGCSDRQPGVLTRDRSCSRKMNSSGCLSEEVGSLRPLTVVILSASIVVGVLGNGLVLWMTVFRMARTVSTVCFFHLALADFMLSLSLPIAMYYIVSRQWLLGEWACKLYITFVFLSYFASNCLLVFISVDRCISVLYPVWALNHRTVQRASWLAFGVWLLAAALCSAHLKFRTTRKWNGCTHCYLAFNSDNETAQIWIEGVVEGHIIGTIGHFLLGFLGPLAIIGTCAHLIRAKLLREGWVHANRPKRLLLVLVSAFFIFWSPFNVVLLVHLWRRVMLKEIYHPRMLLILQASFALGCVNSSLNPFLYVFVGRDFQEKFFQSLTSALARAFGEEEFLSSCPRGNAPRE
Take `O=C(O)Cc1cn(-c2ccccc2)nc1-c1ccc(Cl)cc1`: the activation is inactive: -2.71%.

Regarding `CCc1ccc(NC(=O)CSc2ncc(S(=O)(=O)c3cc(C)ccc3C)c(=O)[nH]2)cc1`, the activation is inactive: 5.53%.

Consider `CC1CCN(c2nc3ccc(C(=O)NCCc4ccc(S(N)(=O)=O)cc4)cc3s2)CC1`, for which the activation was inactive: -8.22%. For `COc1ccc(CC(=O)NC2CC(=O)N(c3ccc(C)c(C)c3)C2)cc1OC` (centres undefined) the value was inactive: -2.45%; for `COc1ccc(-c2nc(Cn3c(SCc4ccccc4F)nc4cccnc43)c(C)o2)cc1`, inactive: -18.4%.

With `Cc1ccc(CNC(=O)CN2C(=O)C3(SCC(=O)N3c3ccc(F)c(F)c3)c3ccccc32)cc1` (centres undefined), the activation is inactive: -11.1%.

In the case of `Cc1cccc2sc(N(Cc3cccnc3)C(=O)C3COc4ccccc4O3)nc12` (centres undefined), the activation was inactive: -17.7%. Regarding `O=C(CN1C(=O)CCc2cc(S(=O)(=O)N3CCCCC3)ccc21)NCc1ccc(Cl)cc1`, the activation was inactive: -17.9%. Next, `CCOC(=O)C(Cc1ccccc1)NC(=O)CCc1c(C)nc2c(c(C)nn2-c2ccc(C)c(C)c2)c1C` (centres undefined): inactive: -3.74%; `COC(=O)c1ccccc1NC(=O)C1CCCN(c2nnc(C)c3c(C)n(-c4ccccc4)nc23)C1` (centres undefined): inactive: 10.7%. For `COC(=O)c1c(NC(=O)c2ccc(S(=O)(=O)N(C)C3CCCCC3)cc2)sc2c1CCN(C)C2` the value was inactive: 5.03%.

In the case of `O=NN(CCCl)C(=O)NC1CCCCC1`, the activation is inactive: -9.15%.

For the compound `Cc1ccc(C)c(N2CCN(C(=O)CS(=O)(=O)c3cccc4nsnc34)CC2)c1`, the activation was inactive: 13.5%.

With `COc1ccc(OCC(=O)NCC(c2ccc(OC)cc2)N2CCOCC2)cc1` (centres undefined), the activation was inactive: -14.5%. Consider `Cc1cccc(N2CCN(C(=O)CN3C(=O)COc4ccc(S(=O)(=O)N5CCCC5)cc43)CC2C)c1` (centres undefined), for which the activation was inactive: -13.6%. For `Cc1cc(NC(=O)c2cnc3c(-c4ccccc4)c(C)nn3c2C)ccc1Br` the value was inactive: 9.8%. As for `Cc1cc(NC(=O)C(C)(C)C)cc(-c2nc3ncccc3o2)c1O`, the activation is inactive: 10.9%. For `O=C(Cn1c(-c2cccs2)cc2cc(F)ccc21)NCCCN1CCN(c2ccc(F)cc2)CC1` the value was inactive: -11.7%; for `Cc1ccc(/C=C/c2onc(C)c2S(=O)(=O)N2CCC(C(=O)NCc3ccc(OC(C)C)cc3)CC2)cc1`, inactive: -27.2%; for `CCc1c(CN2CCN(c3ccccc3F)CC2)csc1C`, inactive: 17.4%. For `Cc1ccc(CNC(=O)c2ccccc2NC(=O)c2nsc3ccccc23)cc1` the value was inactive: 2.03%. `COc1ccc(-c2c(C)c3ccc(O)c(CN4CCCC4)c3oc2=O)cc1`: the activation is inactive: -9.7%. Next, `COc1cccc(CNCCSc2nnnn2-c2ccccc2)c1OC`: inactive: -2.58%; `COc1cccc(C(=O)n2nc(-c3cccnc3)nc2NCc2ccc(F)cc2)c1`: inactive: -22.9%. For `CCN(CC)CCSc1nnc2c3cc(F)ccc3n(CC)c2n1` the value was inactive: 3.07%. For `Cc1ccc(CCNC(=O)CCn2nc(-c3ccc(C)cc3)ccc2=O)cc1` the value was inactive: -12.8%; for `COC(=O)c1ccc2c(=O)n(CCCCCC(=O)N3CCN(c4ccc(Cl)cc4)CC3)c(=O)[nH]c2c1`, inactive: -17.2%. In the case of `COC(=O)c1ccc(NC(=O)CN(Cc2ccccc2)S(=O)(=O)c2ccc(Cl)cc2)cc1`, the activation was inactive: -0.742%. For `CCCSc1nnc2c(n1)OC(c1cccs1)Nc1ccc(Br)cc1-2` (centres undefined) the value was inactive: 33%; for `COc1ccccc1CNC(=O)Cn1c(=O)nc(-c2ccccc2)c2ccccc21`, inactive: -9.95%. Regarding `CNCCC(Oc1ccccc1OC)c1ccccc1` (centres undefined), the activation is inactive: 24.9% and inactive: -13.4%. Take `O=C(NCCc1ccccc1)c1ccc(CS(=O)(=O)c2ccc(Cl)cc2)o1`: the activation was inactive: -17.1%. Turning to `Cc1c(Cl)cccc1NC(=O)Nc1ccc2snnc2c1`, the activation was inactive: 38%.

As for `Oc1c(C(c2ccccc2F)N2CCCC2)sc2nc(-c3ccco3)nn12` (centres undefined), the activation is inactive: 9.21%. Next, `CCCC1=Nc2cc(C(=O)NCCOC)ccc2Sc2ccccc21`: inactive: -25.1%. As to `CCCOc1ccccc1C1C(C(=O)Nc2ccccc2)=C(C)Nc2nnnn21` (centres undefined), the activation was inactive: -11.6%. For `CCc1ccc(N(CC)C(=O)Cn2cnc3sc(C)c(S(=O)(=O)N4CCN(c5ncccn5)CC4)c3c2=O)cc1` the value was inactive: -10.2%; for `CCC(=O)N1c2ccc(S(=O)(=O)CCC(=O)NCc3cccc(OC)c3)cc2CC1C` (centres undefined), inactive: -3.18%; for `CC(=O)Nc1ccc(NC(=O)c2cc(-c3ccc4c(c3)OCCO4)on2)cc1`, inactive: -4.91%. Consider `CC1CNCCN1S(=O)(=O)c1cccc2cnccc12` (centres undefined), for which the activation was inactive: -9.62%. Regarding `Cc1cccc(S(=O)(=O)c2cn(C)c3cc(N4CCC(C)CC4)c(F)cc3c2=O)c1`, the activation was inactive: -18.4%. In the case of `COc1ccc(-c2noc(CSc3nnc(C)n3-c3ccc(C)c(C)c3)n2)c(OC)c1`, the activation was inactive: -6.05%. Next, `COc1ccc(-c2nc(SCC(=O)NCCc3ccccc3)n[nH]2)cc1`: inactive: -0.718%. As for `Cc1cccc(CSc2ccc(-c3cccs3)nn2)c1`, the activation is inactive: -8.15%. Next, `O=C(NCc1ccccc1Cl)c1nnc(Cc2ccc(Cl)cc2)o1`: inactive: 12.9%; `CCOc1ccc(NC(=O)C(C)n2c(=O)cc(C)c3c(C)nn(-c4ccccc4)c32)cc1` (centres undefined): inactive: -2.06%; `CCc1ccc(OCC(=O)Nc2ccc3c(c2)c2ccccc2n3CC)c(Br)c1`: inactive: -10.1%. Next, `N#C/C(=C\c1cc(Br)c(O)c(Br)c1)c1nc2ccccc2c(=O)[nH]1`: inactive: -22.7%. For `COc1ccccc1O` the value was inactive: 14.8%; for `Cc1ccc2onc(CC(=O)N3CCN(c4ccccc4)CC3)c2c1`, inactive: -27.7%; for `Cc1ccc(C)c(N(C)C(=O)Cc2c(C(=O)O)[nH]c3ccc(Cl)cc23)c1`, active: 70.2%. Turning to `CC(C)(C)CC(C)(C)c1ccc(OCC(=O)Nc2ccc(S(=O)(=O)Nc3ncccn3)cc2)cc1`, the activation was inactive: -3.24%. On to `COc1ccc(C2C(C(=O)Nc3ccc(C)cc3C)=C(C)Nc3nc(SCc4cccc(C)c4)nn32)c(OC)c1` (centres undefined), for which the activation was inactive: -2.68%.

In the case of `CC1CN(S(=O)(=O)c2cccc3cnccc23)CCN1` (centres undefined), the activation is inactive: -1.82%. For `COc1cccc(CNC(=O)CN2C(=O)N(c3cccc(Cl)c3)S(=O)(=O)c3ccccc32)c1OC` the value was inactive: -6.08%; for `COc1ccc(N2CCN(S(=O)(=O)c3ccc(-c4cnc(C5CC5)o4)cc3)CC2)cc1`, inactive: 9.46%. With `CN(C)c1ccc(Nc2nc3ccccc3n3nnnc23)cc1`, the activation was inactive: -14.9%. `COc1ccccc1-c1nn2c(=O)cc(CN3CCN(C(=O)/C=C/c4ccccc4)CC3)nc2s1`: the activation was inactive: -2.61%. For `COc1ccccc1CNC(=O)CSc1nc(=O)[nH]c2c1CCC2` the value was inactive: 1.73%. On to `CC1=C(C(=O)Nc2ccc(C)cc2C)C(c2ccc(Br)cc2)n2ncc(C(=O)Nc3cccc(C)c3)c2N1` (centres undefined), for which the activation is inactive: -9.76%. Next, `CCOc1ccc(NC(=O)Cn2c(=O)n(CCCCC(=O)NCc3ccc4c(c3)OCO4)c(=O)c3ccccc32)cc1`: inactive: 14.1%; `CCN(CC)c1ccc(-n2nc3cc(C)c(NC(=O)c4ccccc4C)cc3n2)c(C)c1`: inactive: -6.01%; `CCc1ccc(S(=O)(=O)NCc2nc3cccnc3n2Cc2cccc(OC)c2)cc1`: inactive: -23.9%. With `CCCCCn1c(CNC(=O)c2ccccc2)nc2ccccc21`, the activation was inactive: 22.7%. For `Cc1ccccc1Cn1c(=O)n(CC2CCC(C(=O)N3CCOCC3)CC2)c(=O)c2sccc21` (centres undefined) the value was inactive: -8.77%; for `CCOC(=O)C1=C[C@]2(CC)CCCN3CCc4c(n1c1ccccc41)[C@@H]32`, inactive: 49.1% and inactive: -21.6%; for `COc1ccc(S(=O)(=O)c2nnn(-c3ccc(C(C)C)cc3)c2C)cc1`, inactive: -3.25%.

As to `Cc1c(Cl)cccc1Nc1nn2c(=O)c3ccc(C(=O)NCCC4=CCCCC4)cc3nc2s1`, the activation is inactive: -12.5%. As for `Cc1cc(C)c(S(=O)(=O)N2CCN(Cc3ccc4c(c3)OCO4)CC2)cc1C`, the activation is inactive: -31.9%.

As for `Cc1ccc2c(c1)c1c3n2CCN(C(=O)c2ccc(C(F)(F)F)cc2)C3CCC1` (centres undefined), the activation is inactive: 0.484%. Next, `COc1ccc(-c2cc(C(F)(F)F)n3nc(C(=O)Nc4cc(C)ccc4C)cc3n2)cc1`: inactive: 7.62%; `CCOC(=O)c1sc2ccccc2c1S(=O)(=O)N1CCN(c2cc(C)ccc2C)CC1`: inactive: -16%. As for `O=C(C1CCN(c2ncnc3c2nc2n3CCCCC2)CC1)N1CCN(c2ccc(Cl)cc2)CC1`, the activation was inactive: -2.51%. For `Cc1nn(C(=O)c2cccc(F)c2)c(C)c1S(=O)(=O)N1CCOCC1` the value was inactive: -4.89%; for `COc1ccc(OCC(=O)Nc2ccc3nn(-c4ccc(OC)cc4)nc3c2)cc1`, inactive: -6.97%. Next, `COc1ccc(CCNC(=O)c2cc3c(=O)oc4ccc(C)cc4c3s2)cc1OC`: inactive: 28.4%; `CCNC(=O)c1cc2n(n1)CCCN(Cc1ccc(C)cc1)C2=O`: inactive: 9.92%.

As to `O=C(CCSCc1ccc(Cl)cc1)NCc1ccc(F)cc1Cl`, the activation was inactive: 12.1%. As to `CS(=O)(=O)N1CCc2cc(C(=O)N3CCN(c4ccccc4F)CC3)ccc21`, the activation was inactive: -1.06%. For `O=C(CSc1nccn1Cc1ccc(F)cc1)NCc1ccc(F)cc1` the value was inactive: 5.38%; for `Cc1cc(C)c(NC(=O)c2c(C)nn(-c3ccc(F)cc3)c2-n2cccc2)c(C)c1`, inactive: -2.04%. For `CN1CCN(C(=O)Cn2ncc3c4ccccc4n(Cc4ccc(Cl)cc4)c3c2=O)CC1` the value was inactive: 1.3%; for `Cc1ccc(NC(=O)c2c(NC(=O)c3ccccc3Cl)sc3c2CCC3)cc1`, inactive: 5.92%. As for `COc1ccc(Nc2cc(C(=O)NC3CCCC3)c3ccccc3n2)cc1`, the activation is inactive: 36%.
